Test results from PubChem BioAssay AID588453 (National Center for Advancing Translational Sciences (NCATS), 2011).
Out of some 390,000 compounds screened, about 4,000 (1%) were called active. The inconclusive results got no clear call from the source; some entries with a clear call stand among them for comparison. Calls follow the shape of the dose curve; as a rule, active = well fitted inhibition curve with a large enough effect; inconclusive = small, poorly fitted or top-dose-only effect; inactive = no such curve, though single readings can be large or run the other way. Potencies of inconclusive entries are doubtful fits and often do not repeat.

molecular target: Thioredoxin reductase 1, cytoplasmic (Rattus norvegicus) (UniProt O89049); test: qHTS Assay for Inhibitors of Mammalian Selenoprotein Thioredoxin Reductase 1 (TrxR1): qHTS; conditions: recombinant rTrxR1, NADPH fluorescence consumption, selenite substrate; series mostly up to 114 µM; also: nearly all actives have a fitted effect of over 65% in size
Sequence of UniProt O89049 (O89049 whole entry, looked up): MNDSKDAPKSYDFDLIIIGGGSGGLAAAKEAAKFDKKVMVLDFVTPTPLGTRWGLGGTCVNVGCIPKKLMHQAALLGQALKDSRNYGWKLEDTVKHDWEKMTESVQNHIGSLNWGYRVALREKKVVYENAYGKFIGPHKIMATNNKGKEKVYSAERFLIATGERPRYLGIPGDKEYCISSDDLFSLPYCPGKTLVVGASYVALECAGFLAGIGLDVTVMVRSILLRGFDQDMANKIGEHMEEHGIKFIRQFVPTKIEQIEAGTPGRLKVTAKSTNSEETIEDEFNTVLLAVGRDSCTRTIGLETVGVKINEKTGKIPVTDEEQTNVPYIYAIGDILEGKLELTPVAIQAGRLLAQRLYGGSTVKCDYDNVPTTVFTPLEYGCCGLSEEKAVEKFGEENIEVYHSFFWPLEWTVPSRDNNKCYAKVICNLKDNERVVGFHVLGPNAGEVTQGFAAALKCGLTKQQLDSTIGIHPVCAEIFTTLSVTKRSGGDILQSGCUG
How it was run: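 Rat TrxR1 (90 nM in the dispensed reagent) was pre-reduced with 400 uM NADPH for 5 min at room temperature, then incubated with compound for 15 min. After 400 uM selenite was added, NADPH fluorescence (Ex 340/Em 450 nm) was followed for 8 min.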
Potency is read from the fitted curve at half-maximal effect; tags tell the direction and shape of the fitted curve.

Row | SMILES | Potency
1 | CCOc1ccc(S(=O)(=O)N2CCN(Cc3ccco3)CC2)cc1 | inconclusive: 79.4 µM [inhibitor, partial curve]
2 | Cc1ccccc1Nc1nc(N)nc(COC(=O)c2ccc(O)cc2)n1 | inactive
3 | Cc1ccc(NC(=O)CCc2nnc3n(C)c(=O)c4sccc4n23)cc1C | inactive
4 | COC(=O)CSc1nc2c(c(-c3ccco3)c1C#N)CCCC2 | active: 15.8 µM
5 | Cc1cc(O)c(C(C)C)cc1N=C1CSC(=O)N1 | inconclusive: 10 µM [inhibitor, partial curve, poor fit]
6 | O=C(Nc1nc2ccc(S(=O)(=O)N3CCCC3)cc2s1)C1CCCCC1 | inactive
7 | O=C1C(=O)c2c(C(=O)c3ccccc3)coc2-c2ccccc21 | inactive
8 | COc1cccc(/C=C/c2ccc3ccccc3[n+]2C)c1OC | inactive
9 | Cc1ccc(/C=N/n2c(-c3ccc(Cl)cc3)n[nH]c2=S)o1 | inconclusive: 3.16 µM [inhibitor, partial curve, poor fit]
10 | CC(=O)N1CCOc2ccc(S(=O)(=O)N(C)c3cccc(C)c3)cc21 | inconclusive: 39.8 µM [inhibitor, single point]
11 | COc1cc2cc(CNc3ccc(C)cc3)c(=O)n(CC(=O)Nc3ccc(F)cc3F)c2cc1OC | inconclusive: 3.16 µM [inhibitor, full curve, poor fit]
12 | Cc1ccc(N2C(=O)c3ccccc3C2C(=O)c2ccc(O)cc2O)cc1 (stereo not drawn) | inconclusive: 89.1 µM [inhibitor, single point]
13 | CCN1CC2=C(OC(N)=C(C#N)C2c2cccs2)/C(=C\c2cccs2)C1 (stereo not drawn) | inconclusive: 39.8 µM [inhibitor, single point]
14 | CC(=O)Nc1ccc2nc(NC(=O)COc3ccccc3C)sc2c1 | inactive
15 | Cc1cc(C)n(CCc2nc(-c3ccc(-c4ccccc4)cc3)cs2)n1 | inconclusive: 89.1 µM [inhibitor, partial curve, poor fit]
16 | CCN(CC)S(=O)(=O)c1cccc(C(=O)N/N=C2\CCCC(=O)C2)c1 | inconclusive: 22.4 µM [inhibitor, partial curve, poor fit]
17 | O=C(O)[C@@H]1Cc2c([nH]c3ccccc23)C2CCC(=O)N21 (stereo partly drawn) | inconclusive: 70.8 µM [inhibitor, single point]
18 | COc1ccccc1-c1nc(S(=O)(=O)c2ccc(Cl)cc2)c(N(C)C)o1 | inconclusive: 1.12 µM [inhibitor, full curve, poor fit]
19 | O=C(CSc1ccccn1)Nc1ccc2[nH]c(=O)[nH]c2c1 | inactive
20 | CCC(c1nnnn1Cc1ccco1)N(Cc1ccccc1OC)Cc1cc2cc(C)ccc2[nH]c1=O (stereo not drawn) | inconclusive: 14.1 µM [inhibitor, partial curve, poor fit]
21 | Cc1ccc(CN(C)C(=O)CCc2nc3sc4c(c3c(=O)[nH]2)CCCC4)o1 | active: 50.1 µM
22 | COc1ccc(-c2nc(CS(=O)CC(=O)NC3CCCC(C)C3C)c(C)o2)cc1OC (stereo not drawn) | inconclusive: 50.1 µM [inhibitor, partial curve]
23 | Cc1cc(C)n(-c2nc3ccccc3c3nc(C)nn23)n1 | inconclusive: 35.5 µM [inhibitor, partial curve, poor fit]

Row | SMILES | Potency
24 | Cc1nc(C)c(-c2csc(Nc3ccc(O)cc3C)n2)s1 | inconclusive: 89.1 µM [inhibitor, single point]
25 | Cc1cccc(NC(=S)NC(=O)c2ccco2)c1C | inconclusive: 56.2 µM [inhibitor, partial curve, poor fit]
26 | COc1cc(NC(=O)CSCC(=O)N(C)C2CCCCC2)cc(OC)c1 | inconclusive: 31.6 µM [inhibitor, single point]
27 | CC(=NNC(=S)N1CCCCCC1)c1ccccn1 | inconclusive: 2 µM [inhibitor, full curve, poor fit]
28 | O=C(CCN1C(=O)C2CC=CCC2C1=O)Nc1nc(-c2ccc(F)c(F)c2)cs1 (stereo not drawn) | inconclusive: 89.1 µM [inhibitor, partial curve, poor fit]
29 | Cc1cc2ccccc2n1-c1ccc(C(=O)N2CCC(C(=O)NCc3ccc(Cl)cc3)CC2)s1 | inactive
30 | C[N+](C)(C)c1ccc(/C=C2\C=Cc3ccccc32)cc1 | inactive
31 | CC(/C=N/NC(=O)Cc1cccn1C)=C\c1ccco1 | inconclusive: 31.6 µM [inhibitor, partial curve]
32 | CC(C)CCn1c(SCC(=O)NC2CC2)nc2cc(Cl)ccc2c1=O | inactive
33 | COCCCNc1oc(/C=C/c2cc(OC)c(OC)c(OC)c2)nc1C#N | inconclusive: 89.1 µM [inhibitor, single point]
34 | CCN(CC)C(=O)c1sc2c(c1C)c(=O)n(-c1ccc(Cl)c(Cl)c1)c(=O)n2Cc1ccccc1C#N | inactive
35 | O=C1C(=O)N(CCN2CCOCC2)C(c2cccc(Cl)c2)/C1=C(/O)c1ccc2c(c1)OCO2 (stereo not drawn) | inconclusive: 31.6 µM [inhibitor, partial curve, poor fit]
36 | O=C(NNc1cc(Br)c(O)c(Br)c1)c1ccccc1 | inconclusive: 25.1 µM [inhibitor, partial curve]
37 | CCCCn1c(SCC(=O)Nc2cc(C(F)(F)F)cc(C(F)(F)F)c2)nnc1C(CC)N(C)C (stereo not drawn) | inactive
38 | CCOc1ccccc1/C=c1\sc2ncnn2c1=O | inconclusive: 17.8 µM [inhibitor, full curve]
39 | Cc1[nH]n(CCC#N)c(=O)c1CC(=O)N1CCN(c2ccccc2)CC1 | inconclusive: 31.6 µM [inhibitor, single point]
40 | CCOc1ccc(C(=O)CCN2CCCCCC2)cc1 | active: 0.251 µM
41 | Cc1ccc(C(=O)CN2CCN(c3ccccn3)CC2)c(C)c1 | inconclusive: 50.1 µM [inhibitor, partial curve]
42 | CCCC1=Nc2cc(C(=O)NCc3ccc(OC)cc3)ccc2Sc2ccc(C)cc21 | inconclusive: 100 µM [inhibitor, single point]
43 | O=C(Nc1ccccc1C(=O)Nc1ccccc1)c1ccccc1Br | inactive
44 | COc1cccc(C(=O)CSc2nnc(CNS(=O)(=O)c3ccc(C)cc3)n2C)c1 | inconclusive: 70.8 µM [inhibitor, single point]
45 | Cc1c(C(=O)N2CCc3ccccc32)oc2c1C(=O)CC(C)(C)C2 | inactive
46 | CN1CCc2c(sc3c2C(=O)NC(c2ccc(OC(=O)c4ccc(C(C)(C)C)cc4)cc2)N3)C1 (stereo not drawn) | inactive

Row | SMILES | Potency
47 | COc1ccc(C(=O)[C@H]2[C@H]3C(=O)N(c4ccc(OC(C)=O)cc4)C(=O)[C@H]3C3C=CC=NN32)cc1 (stereo partly drawn) | inactive
48 | CC(=O)Nc1ccc(S(=O)(=O)NCC(=O)OCC(=O)NCc2ccco2)cc1 | inconclusive: 70.8 µM [inhibitor, partial curve, poor fit]
49 | CN(C)C(=O)COC(=O)c1cc(Cl)cc(Cl)c1N | inconclusive: 100 µM [inhibitor, single point]
50 | COc1ccccc1-c1coc2c(CN3CCOCC3)c(O)ccc2c1=O | inconclusive: 44.7 µM [inhibitor, partial curve]
51 | CCN(C(=O)c1oc2ccc(S(=O)(=O)N3CCCCCC3)cc2c1C)c1ccccc1 | inactive
52 | Cc1nnc(CN(C)C(=O)CC2C(=O)NCCN2Cc2ccccc2C)o1 (stereo not drawn) | inconclusive: 22.4 µM [inhibitor, full curve]
53 | COc1ccccc1S(=O)(=O)Cc1ccc(C(=O)N2CCN(c3ccccn3)CC2)o1 | inconclusive: 79.4 µM [inhibitor, partial curve]
54 | CC(=O)Oc1cccc(/C=c2\sc3nc(-c4ccco4)nn3c2=O)c1 | inconclusive: 56.2 µM [inhibitor, partial curve]
55 | O=C(NCc1ccco1)c1scc2c1OCCO2 | inconclusive: 35.5 µM [inhibitor, single point]
56 | COC(=O)C1=C(C)N(c2cc(C)cc(C)c2)/C(=C/c2ccco2)C1=O | inconclusive: 35.5 µM [inhibitor, partial curve, poor fit]
57 | CS(=O)(=O)Nc1ccc(C2=NN(C(=O)C3CCCCC3)C(c3cccs3)C2)cc1 (stereo not drawn) | inconclusive: 89.1 µM [inhibitor, single point]
58 | COc1ccc(NC(=S)Nc2cccc([N+](=O)[O-])c2)cc1 | active: 17.8 µM
59 | COCCNC(=S)N/N=C(\C)c1ccccc1O | inconclusive: 79.4 µM [inhibitor, single point]
60 | CC(NC(=O)c1cc2cc(Cl)ccc2oc1=N)c1ccccc1 (stereo not drawn) | inconclusive: 79.4 µM [inhibitor, partial curve]
61 | CC(=O)c1cccc(NC(=O)CC2S/C(=N/N=C/c3ccccc3)NC2=O)c1 (stereo not drawn) | inactive
62 | O=C1c2c(O)cc(O)cc2O[C@@]12c1c(cc(O)c3c1O[C@H](c1ccc(O)cc1)[C@@H](O)C3)O[C@@H]2c1ccc(O)cc1 | inconclusive: 2.24 µM [inhibitor, full curve, poor fit]
63 | N#Cc1cccc(NC(=O)c2cncn2-c2ccccc2)c1 | inactive
64 | CC(C)Cn1cnc2c(Sc3c([N+](=O)[O-])ncn3C)nc(N)nc21 | active: 2 µM
65 | CC(C)(C)OC(=O)N1CCC[C@H]1c1nnc(SC/C=C/c2ccccc2)o1 | inconclusive: 11.2 µM [inhibitor, partial curve, poor fit]
66 | O=C(/C=C/c1ccco1)Nc1ccc(Cl)c(S(=O)(=O)N2CCOCC2)c1 | inconclusive: 56.2 µM [inhibitor, partial curve, poor fit]
67 | COc1cc(C)c(NC(=S)Nc2cccc(Cl)c2)cc1OC | inconclusive: 5.01 µM [inhibitor, full curve, poor fit]
68 | CCOc1ccc(C(=O)NC(=S)NCCCN2CCOCC2)cc1 | inconclusive: 70.8 µM [inhibitor, partial curve, poor fit]
